Over roughly 33,000 sequences, “E-score (-0.5 to 0.5)” has its median near -0.016; the highest 2% begin near 0.31. This is one part of the list.
biological target: Cst6 (UniProt P40535); experiment: PBM E-score (8-mer binding enrichment) (E-score (-0.5 to 0.5)); higher = stronger / more preferred TF binding; most listed sequences are background and not binding sites; details: protein concentration: 200 nM; construct: GST-DNA-binding domain
Description: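 Universal 'all 10-mer' protein binding microarrays (Agilent AMADID 015681) probed with GST-tagged S. cerevisiae TFs (full-length or DBD) made by in vitro transcription/translation (PURExpress), about 100-200 nM. Bound TF was detected with fluorescent anti-GST. Each ungapped 8-mer (which stands for itself and its reverse complement) is scored by the PBM enrichment score (E-score), a modified Wilcoxon-Mann-Whitney statistic from -0.5 to +0.5, computed with the Universal PBM Analysis Suite. Scale: above 0.35 generally sequence-specific binding.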

Sequence	PBM E-score
ATCAGCCA	-0.119
TACGGGGA	-0.126
AGGCCATC	-0.168
TCAGGTAA	-0.00858
AGCAGTTC	-0.0692
AAATGGAC	0.103
CGTTATAA	0.161
CGCGTAAC	0.0886
ATTAAAGC	0.0848
TCACTCCA	0.0486
CAGCGCTC	-0.141
CGGTCAGA	-0.216
CTTCGCGA	-0.219
AAAAGGGT	0.0092
TCGGATAA	0.0238
TCTTATAA	0.111
ATCGCCGA	0.193
AGTCCCCA	-0.363
TACCCGTA	-0.0666
CTCCTACC	-0.312
ATATCGGA	-0.089
CAGCCTGG	-0.208
GTACGGAA	0.0659
AGACTGTG	-0.122
ATATCCGC	-0.0354

Sequence	PBM E-score
CAAAAAGG	0.0223
AGTTGTTC	0.108
CTAATGTC	0.096
AGTATGTC	0.155
GCCCAAAC	-0.104
GAAATATC	0.014
ACCTACTC	-0.00719
AGCCGGCC	-0.142
AAGTCAGA	-0.133
CACGGTCA	0.171
AAGCTTGA	-0.0535
ATAAGCTA	0.211
CGCCAGTC	-0.14
ACTTGCAG	-0.132
CTTAACCC	-0.27
TTGAAAAA	0.218
AAAGTCTT	0.00101
ACTCTACT	0.12
ACGACGAA	0.0916
AGAGAAGA	0.0196
CCCCCAGA	-0.391
ATTGCGTC	0.34
CACCCAAC	-0.135
AACTTATG	0.232
CGTAATTC	0.309

Sequence	PBM E-score
GTATGCCA	-0.296
ACTTTCCC	-0.132
CTTGTTTA	0.14
AACGCGGT	0.0121
CAATCTTA	0.0855
CCGTGATC	-0.0186
ACCTTGCA	-0.236
ACCAGCGG	-0.0683
TCAACGAA	0.114
ATGGCCAG	-0.102
AGCGAAAA	0.0315
AGGTAACT	0.106
CCTCAAGA	-0.159
AAAGAGAA	0.0831
CCCTTTCC	-0.138
ACCAACAA	0.197
ATTGCGTG	0.154
ACGATCCG	-0.108
ACCACAAG	-0.233
CGGTCCGC	-0.198
ATGTCGAG	-0.0235
GGTCGAGA	-0.263
TTAGCTAA	0.168
ACTACAAA	0.256
AAGTAATA	0.11

Sequence	PBM E-score
CCAAGAAC	-0.157
AGTTCAAT	-0.11
ACCTAATG	-0.118
CCGCCTAC	-0.0654
GCACACAC	0.039
GTCCACAA	0.0357
CCCAAAAA	-0.0343
TAATCGTA	0.235
TCCTGAGA	0.0111
AGAGGATC	-0.18
GATTCTGA	0.0866
ATCTTTAC	0.162
CAATACTG	-0.115
CTTGCAGC	-0.0494
AACGTAAG	0.306
GCGTACAC	-0.178
ATCGGATG	0.0223
ATTAGATC	0.16
GCAAGCTA	-0.115
CACCTACA	-0.206
AACTGACT	-0.0179
AGACAGGA	0.0765
CCGGGGGA	-0.333
GAGGCATC	0.102
ATCGCTGC	-0.132

Sequence	PBM E-score
ATGCAATG	0.194
GAAACGCC	0.246
AGTTTCGG	0.0436
TGCAGCAA	0.0106
GGGGTTTA	-0.252
ACCCTACT	-0.161
AAGGGGCA	-0.178
ATTATGGA	0.0464
AAATGGGT	0.0302
CTGATCTC	-0.0958
CAAATCTC	-0.0483
GCACAACC	-0.241
CAGTTGCC	0.0723
CAAGCTGA	0.0826
CTTCCTTA	-0.0676
CCCTGTGC	-0.144
GATGTTGA	0.225
CCAGTGAG	-0.0869
CCTGTCCA	-0.305
AATCGTCC	-0.00977
CTAACATC	0.0755
ACAAGGCT	-0.0734
CCACCGCG	-0.0547
TACGTCGA	0.238
TACTCCGA	-0.22

Sequence	PBM E-score
CTGGGATC	-0.123
GCCCGGAA	-0.243
CAGAATAG	0.106
ACGTCCTG	-0.115
CATTATAC	0.15
CTCATTCA	0.0767
GCGTTGGA	-0.0905
ATGAGCCC	-0.283
CCAGCCTC	-0.338
CTTAAGAA	0.0736
AAACGGAC	-0.106
GAGCCTGC	-0.173
TAAAGCCA	0.0736
CCAAGTCC	-0.349
TCATGTCA	0.382
AAGGCGCC	0.244
AATTGGGT	0.268
GAGAGATC	-0.135
TCGATGCA	-0.0904
AAATCGAC	0.135
AAACGCTC	-0.105
CGTAGCAC	0.059
ATCGCCCA	-0.292
CTGACGTC	0.482
AGACAAGC	0.0557

Sequence	PBM E-score
CTTCGGAC	-0.005
TGATACCA	0.079
GCGGCGAC	0.0991
ACAACCAC	0.133
CCACCGGA	-0.00856
ATCATTGC	0.188
ATGGATTA	-0.0119
ACATGGCT	-0.193
CCTCATAA	0.199
AGTTGGTG	-0.0092
ACTCTGGG	-0.187
AGCGCTCG	-0.227
TCTGACCA	0.126
CCTCGCAC	0.0202
CCCTCGGA	-0.138
CAGGCCGA	-0.198
ACAACGAT	0.0199
CTTCTCAC	0.0255
CGACCCAG	-0.191
AGCCGGCG	-0.0824
ACACGACA	0.103
TCCGTAAA	-0.0237
GTAGAGCA	-0.0326
CGCTGCCA	-0.161
GTCTTTGA	0.0187

Sequence	PBM E-score
CCACGATC	0.178
ACGTTTAT	0.249
AGCAGACG	-0.079
TAGGTACA	-0.137
CAACATCA	0.305
CCTGCGGA	-0.0778
ACCCCCCC	-0.357
ACCCCGGC	-0.247
CTCAAGTA	-0.112
AGGCCAGC	-0.148
GATAACGC	0.0356
CAGATACA	0.181
CGATAACG	-0.00108
ACCAAAAT	0.157
CATGCATC	0.0691
CCCCTGCC	-0.274
AACAGGGT	-0.319
TCACATGA	0.0859
GAATACGA	0.104
GGGGACAA	-0.107
AACTACTG	-0.0481
CACGAGTA	0.161
ATGGATAG	-0.201
AGTTGCGC	-0.0836
ATAGACAA	0.15

Sequence	PBM E-score
GGGGGTAA	-0.032
AAGTTAGT	0.0846
ACAGGGTA	-0.141
GGGGGGGA	-0.404
AAGTAACG	0.0219
GATGAGGA	0.0495
GGATTGAA	0.117
AGGCGTTC	-0.296
ATTCGAGC	0.0412
TATAGACA	0.0313
GTATGAAA	0.148
AATCACCG	0.0977
AATAGGAA	0.12
TGCCGAAA	0.0378
CCGCTATA	-0.0308
AATTCGAT	0.147
GTACTCAA	0.0374
ACGTGGGA	-0.173
AGGCTATC	-0.191
AGAGGTTA	-0.0325
ACAACTCA	0.115
CCAGACGG	-0.208
CGATGCCC	-0.202
ATTGGAGA	-0.00124
CGGTGCGA	-0.165

Sequence	PBM E-score
AATTGGAA	0.12
AGGATGGC	0.0183
ACACTCCG	-0.136
CAGAGTGA	0.0082
AACTCGAT	0.0881
CTCATTGA	-0.0286
AAGACCAC	-0.31
CAGTGTGC	-0.255
ATAAGATA	0.175
AGTATAAG	0.188
CGACAGTC	-0.24
CGAGAGTA	-0.0682
AGCAGCTG	-0.0203
AAACCGTT	-0.0828
GTAGGCGA	-0.0534
GTAGCCAA	-0.16
CCAGAGAG	-0.321
CGCTGGCC	-0.275
ATTGGAAG	-0.00871
GCACAATA	-0.117
GATGCGAA	0.0293
ATGTATCC	0.0466
ACCCTGCC	-0.252
GGCTCGCA	-0.0199
ACAAATCT	0.101

Sequence	PBM E-score
ATACCATG	-0.105
AGGAATAA	0.107
CCGATTTA	0.0277
ACCTAAGA	0.0966
CATCCGTA	0.22
CACACGTG	0.223
GAGCACCA	-0.219
CCGCCAAG	-0.307
CGCCTGGC	-0.209
ACAAGACG	-0.0785
AGGGGTGG	-0.17
GATCAAGC	0.0222
CAAGACTG	-0.00228
CAGATTGA	0.123
CAATAGTG	0.0792
GGTGGAGA	-0.338
CTGGTGAC	0.263
GGAAAGCA	-0.0362
CGACTTAA	-0.00064
CGAACTGC	-0.214
AGAAACTG	0.0398
GGCAATAA	-0.00855
CTCCTGCC	-0.112
TGTCGAAA	0.0613
AGTAAGGG	-0.0903

Sequence	PBM E-score
ATCTAGTG	-0.101
AAACGAGC	0.104
ACACGTCT	0.0155
ATTCACCA	0.0508
CTTGTACA	0.0414
CTACACCA	0.0191
CCAACATC	-0.192
AAACCGCT	-0.187
ACATGGTC	-0.0428
CCTGAGCC	-0.213
AGTTTAAT	0.184
TCTTGGCA	0.205
AATCTAAG	0.00119
CCAAGCTA	-0.266
AAATAGAG	0.094
CGGGAACA	0.0552
AACGACAG	0.0574
GACGCCAA	0.111
GAAGAGTA	-0.0467
CCCAGAAA	-0.016
GGGCAAAC	-0.12
TAGCCGGA	-0.0545
ACGTGTGG	0.0682
CTCGGCAC	-0.0863
CGTTCTGC	-0.0293

Sequence	PBM E-score
ACCAAGCC	-0.235
AGTTGTGG	0.159
AAGGCTAC	-0.0533
GCGGTAAA	0.149
ACCTCCCC	-0.226
CCCGCCCG	-0.0149
ATACCTCC	-0.244
ACGCTCCA	-0.0805
TCTCCGAA	-0.0577
AACATACC	0.0667
AGATTGAA	0.122
TCATACCA	0.097
ACAGGATA	0.0807
CGCGGTAG	-0.122
GCTACAGA	-0.21
CCTGACCA	0.04
CAGACTTA	-0.094
GCGACAAA	0.0926
ACACTGAA	0.171
ATCTCAAA	0.203
GATATCAA	0.223
GAACTGCA	-0.0481
TGTGGCAA	0.134
GACTCCAA	-0.306
CAAGACTA	-0.114

Sequence	PBM E-score
CATGGGAG	-0.159
GCATACCC	-0.111
CTCTGCCA	-0.00779
CTCGGACA	-0.122
CCTAACTC	-0.194
CAAACGTC	0.137
GCTCGTTA	-0.151
ATAACAAC	0.171
ATATTAAC	0.303
CGTAGGCA	-0.151
AATGGCTC	-0.0445
CCACAATA	0.00807
CTAATTGA	0.0398
GCAATCGC	-0.0602
ATTGTCTA	0.218
ATCTGATA	-0.107
GAGGCATA	0.14
CATTTCAA	0.222
GCTGGAAA	-0.0103
